Consider 14 molecules from paper PMC12136788.

B1: chr2:164332853:164332854:+_ENSMUSG00000017721_ENSMUST00000103101|mus_hu|FALSE|FALSE (ssRNA)
RNA: GGGAGUUCUACAGUCCGACGAUCAUAGCACACGGCCACCACAGUGCACGUGAGGCAGAUCACGUUGUAGGGCAUGCUGAAGUCCGGUGUCGGCAGGUUCACCAGCAGCGGCUCCGUGUAGAGCCGCACAAAGUAGUUAGAGCCCAACAGAGGAUUGAGCAUCA
B2: chr2:48026839:48026840:+_ENSG00000116062_ENST00000540021|hu_hu|hu_hu_hu_mus_False|28_28 (ssRNA)
RNA: GGGAGUUCUACAGUCCGACGAUCAUAGUGAGCCACUAGCGUCCUAAAUCUGGAACAGUGGCGGUCAUCCGAAAACUGGCCGAUGAAAAACUUGCCCAGUGAAGUGUCAACAAAGCAAACACCAUACACACGAGUGUGACCAGACAACAGAGGAUUGAGCAUCA
B3: chr14:76815493:76815494:+_ENSMUSG00000022010_ENSMUST00000110888|mus_mus|FALSE|FALSE (ssRNA)
RNA: GGGAGUUCUACAGUCCGACGAUCGCGCCGGCUGCUCGUGCCUUCGAGGGCUUCUUUGGCCAACUCCGGAGCCAGCUCAACCCCCUCCUCCCGCGGCGACGGCCGCUGCAAAAGCCCCUCCGCUCGUCCUGCACCGAGGCAGCGCAACAGAGGAUUGAGCAUCA
B4: chr12:77883889:77883890:+_ENSMUSG00000090258_ENSMUST00000041262|mus_mus|motif|central (ssRNA)
RNA: GGGAGUUCUACAGUCCGACGAUCGAAGAGCAGUCGGGUGCUCUUACCCACUGAGCCAUCUCACCAGCCCUAGGCUUGCUCGGUUUUAAAGCAAGCCAACACAGUUACAAGAGAACCAUGGGAGGCUUAGAACAGCAGAGUCAUCAACAGAGGAUUGAGCAUCA
B5: chr12:42180722:42180723:-_ENSMUSG00000036295_ENSMUST00000043884|mus_hu|mus_mus_mus_hu_True|8_48 (ssRNA)
RNA: GGGAGUUCUACAGUCCGACGAUCCUGUAGGAGAAGAAUCUGUGUGUUAGCUGGCAAUCUGGCUGGGAAAGUUAAAAGACCUAAAUCAUUACAGUCCACUGUAGAUGCUUCCAUAUAAAUGGAUCUGGGGGUAAACCAAGGCCUCAACAGAGGAUUGAGCAUCA
B6: chr18:42401725:42401726:-_ENSMUSG00000024493_ENSMUST00000097590|mus_hu|FALSE|FALSE (ssRNA)
RNA: GGGAGUUCUACAGUCCGACGAUCAGGACGAACCCAACAAUUUGUCUGCCCAAACAUGGUCUCAGGUCUGAGAGUAGCAGCCACCAAGAAAAUAUUUUUACCUUUCAGGCCACUUAAUUUAGAUGGGUAUGGCUCAAGCACCUUCAACAGAGGAUUGAGCAUCA
B7: 155570381_155570501_6417_3pUTR_ENSG00000184863_ENST00000401878|human|control|control (ssRNA)
RNA: GGGAGUUCUACAGUCCGACGAUCAUAAAAAUCGAAUAUACACACAAACACAUCAACAACUGUGGAACUGUAUCCAUUAAACUUUGAUAAGACAACACAAAGAACUAAUAGCUAAGAUGUGGCUGAGUUGAAAGCACUUCCAAUCAACAGAGGAUUGAGCAUCA
B8: 156646888_156647008_241_CDS_ENSG00000132688_ENST00000368223|human|control|control (ssRNA)
RNA: GGGAGUUCUACAGUCCGACGAUCGGCAUGCGCCCGCCAGGAGGUGUCCGCGGAUUGUGCCCGGAGCCCCCCGAGCUCCGCGCUGAGCAGCUCAUUCUGCUCCUCCAGCGCCUUGACCCGGGCCAGGUAGGCCUCCAGGCGCCGCAACAGAGGAUUGAGCAUCA
B9: chr22:42033747:42033748:+_ENSG00000196419_ENST00000405878|hu_mus|FALSE|FALSE (ssRNA)
RNA: GGGAGUUCUACAGUCCGACGAUCCAGGUCUUCCAGCUUGCUUGACUCCUCGAAGUGAACCCCAAGGUCCUCGUCCUCAGCGGUGGUGAUGAUGUCCCUGUAGAACACGGAUACAUCAAAGCCUCCUGGCUUCUUCAGAUGCAUCAACAGAGGAUUGAGCAUCA
B10: chr4:57889662:57889663:+_ENSG00000047315_ENST00000314595|hu_hu|FALSE|FALSE (ssRNA)
RNA: GGGAGUUCUACAGUCCGACGAUCAUUGAGAGUUACCAUAACCUGAUCCACAAUGCCCGUCUCGCUAGUUCUGAGAAAAGUGCUACAGUCUCUCUUGGUAUAGCGUCUAUUGGUGCUCUCCAAUUCAUCUUCAUUUUCAGGCAACAACAGAGGAUUGAGCAUCA
B11: chr17:73519777:73519778:+_ENSG00000182173_ENST00000333213|hu_hu|FALSE|FALSE (ssRNA)
RNA: GGGAGUUCUACAGUCCGACGAUCUUUGCCAGGGUUAUUCUUUCGGAAUGUGGCCACAGCGUCGGCCUGGUAAACAUCAAAGAUGAUUUCCAAGCCCCCAGACUUCUCCAACAGCCGGGCACCUCCAUCAGGAAGGUGUGUUGUCAACAGAGGAUUGAGCAUCA
B12: chr8:74858975:74858976:-_ENSG00000154582_ENST00000284811|hu_mus|hu_hu_hu_mus_True|1_68 (ssRNA)
RNA: GGGAGUUCUACAGUCCGACGAUCGACCUUGUAGGUAAAAUACAUGCACACUUUUGAUAGCACAUGUGAAGGUAUCUCUCUAAAAUUGACCUCGUUGGUUUCAUUCUCAGCAAACUGACCUGGACCACUCAACAUAGCUUUUAUCAACAGAGGAUUGAGCAUCA
B13: chr4:87735950:87735951:+_ENSG00000163629_ENST00000511467|hu_mus|FALSE|FALSE (ssRNA)
RNA: GGGAGUUCUACAGUCCGACGAUCUAGACUCAGUGUGUCUUUGUAACAACGUCCACUAUGAUCAAAUGCUGUCUCCAGCCCUAAGACCUGCUGGUUCAGUUAGUGAAAAAGGAGUUUUAAUGACCAUCAGUGGUUGAAGUGGCUCAACAGAGGAUUGAGCAUCA
B14: chr7:141438946:141438947:+_ENSG00000106028_ENST00000265304|hu_mus|hu_hu_hu_mus_True|8_38 (ssRNA)
RNA: GGGAGUUCUACAGUCCGACGAUCGACGAAAUACCUGUAACACAGGUCUUCGAAACAUGGCUUCUGUUUUUCUUACAACCUAAUCUUUAGGCUUUUCCUGACGAUCUGAAAGAAAAGAGAAAAAUGAGCAGGGGAUCAACUACACAACAGAGGAUUGAGCAUCA

The list shows a part of the results.

This assay addresses T1, UNK ZnF1-3 (human, UniProt Q9C0B0 31-174).
T1 sequence: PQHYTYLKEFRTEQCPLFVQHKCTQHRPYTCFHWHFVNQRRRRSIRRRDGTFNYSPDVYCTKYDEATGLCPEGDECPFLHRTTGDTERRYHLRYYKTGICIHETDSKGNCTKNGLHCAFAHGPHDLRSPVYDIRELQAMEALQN
Kind of assay: nsRBNS (natural sequence RNA bind-n-seq); RBNS binding buffer (assumed for nsRBNS): 25 mM Tris pH 7.5, 150 mM KCl, 3 mM MgCl2, 0.01% Triton X-100, 500 ug/ml BSA, 20 U/ml SUPERase-In, 4 C; UNK is unkempt and MSI1 is Musashi-1; names of the RNAs are library labels; protein concentration not given here; high values mean tight binding.
In turn, B1 gave a binding signal of 0.521 enrichment R.
B2 registered a binding signal of 1.46 enrichment R.
The molecule B3 came in with a binding signal of 0.639 enrichment R.
B4 gave a binding signal of 1.31 enrichment R.
In turn, B5 displayed a binding signal of 1.29 enrichment R.
Under B6 stands 1.22 enrichment R; under B7, 1.27 enrichment R; under B8, 0.479 enrichment R.
Under B9 stands 0.845 enrichment R; under B10, 0.974 enrichment R; under B11, 0.858 enrichment R.
The value for B12 was 0.85 enrichment R.
In the case of B13, the binding signal amounted to 0.628 enrichment R.
In the case of B14, the binding signal worked out at 0.754 enrichment R.
